Hit rate of the full screen: of about 310,000 compounds, about 14,000 (4.5%) showed an effect of 50% or more. The effect is printed as a negative number. This is one part of the list.
biological target: human ether-à-go-go-related gene (hERG) potassium channel (human, UniProt Q12809); assay: primary screen, population patch clamp on CHO cells stably expressing hERG
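Note: peak tail current of the secondary pulse compared with the same well before compound.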

Chain of human ether-à-go-go-related gene (hERG) potassium channel (Q12809 whole entry, looked up): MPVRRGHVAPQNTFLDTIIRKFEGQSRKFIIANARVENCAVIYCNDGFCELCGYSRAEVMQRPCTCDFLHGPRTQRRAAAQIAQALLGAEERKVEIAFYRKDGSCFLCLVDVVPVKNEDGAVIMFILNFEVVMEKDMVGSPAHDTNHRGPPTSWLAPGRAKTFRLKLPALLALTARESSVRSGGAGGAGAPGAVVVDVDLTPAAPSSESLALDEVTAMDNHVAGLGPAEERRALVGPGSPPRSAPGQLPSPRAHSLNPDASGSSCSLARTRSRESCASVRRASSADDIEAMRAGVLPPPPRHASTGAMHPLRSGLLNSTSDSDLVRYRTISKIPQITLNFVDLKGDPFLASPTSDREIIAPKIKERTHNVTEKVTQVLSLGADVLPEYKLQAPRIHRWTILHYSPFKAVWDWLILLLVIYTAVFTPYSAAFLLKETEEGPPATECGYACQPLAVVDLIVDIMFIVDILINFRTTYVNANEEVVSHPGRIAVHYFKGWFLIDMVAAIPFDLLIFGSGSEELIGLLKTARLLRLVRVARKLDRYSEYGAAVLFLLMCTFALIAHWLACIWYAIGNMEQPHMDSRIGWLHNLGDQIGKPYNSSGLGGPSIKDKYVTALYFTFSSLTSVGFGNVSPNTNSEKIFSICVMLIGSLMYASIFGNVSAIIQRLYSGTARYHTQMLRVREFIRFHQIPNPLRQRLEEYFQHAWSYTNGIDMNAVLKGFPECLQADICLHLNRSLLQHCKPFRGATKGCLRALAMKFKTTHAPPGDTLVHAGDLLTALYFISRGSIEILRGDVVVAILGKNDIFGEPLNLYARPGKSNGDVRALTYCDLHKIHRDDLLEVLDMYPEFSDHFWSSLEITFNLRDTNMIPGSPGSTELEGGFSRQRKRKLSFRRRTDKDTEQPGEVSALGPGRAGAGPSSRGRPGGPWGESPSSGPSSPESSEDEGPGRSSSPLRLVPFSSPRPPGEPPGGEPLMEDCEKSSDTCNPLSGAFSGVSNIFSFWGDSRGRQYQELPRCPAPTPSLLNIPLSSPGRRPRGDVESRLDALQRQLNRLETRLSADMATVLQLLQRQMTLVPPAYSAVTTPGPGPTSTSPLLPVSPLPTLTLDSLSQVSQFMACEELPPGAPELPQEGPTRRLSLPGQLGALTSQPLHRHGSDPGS

SMILES | hERG current change (%, negative = inhibition) at 10uM [%]
CCOc1ccc(NC2=NCCC(=O)N2Cc2cccs2)cc1.Cl | -2.46
Cc1ccc(S(=O)(=O)NNC(=O)C2CC=CCC2C(=O)O)cc1 (stereo not shown) | 9.94
O=C(N/N=C/c1ccccn1)c1ccc(NC(=O)c2ccccc2Cl)cc1 | -5.08
O=S(=O)(NCc1ccc(Cl)cc1)c1ccc(Cl)nc1 | -9.51
COc1ccccc1OCC(=O)Nc1cc(NC(=O)COc2ccccc2OC)cc(C(=O)O)c1 | 16.9
CCn1c(SCC(=O)NCCc2ccccc2)nc2c(c1=O)SC(C)C2 (stereo not shown) | 5.03
NC(=O)CSc1nnc(-c2ccc(O)cc2)n1Cc1ccco1 | -1.46
CCOC(=O)C1CCCN(C(=O)/C=C/c2cc(OC)c(OC)c(OC)c2)C1 (stereo not shown) | -6.33
Cc1ccc(C(=O)Nc2ccccc2C(=O)N2CCCC2)cc1[N+](=O)[O-] | 2.34
O=C1c2ccccc2NC(c2cccc(O)c2)N1O (stereo not shown) | 14.9
O=C(c1ccc(OC2CCN(C/C=C/c3ccccc3)CC2)cc1)N1CCCCC1 | -53.1
Cc1cccc(-c2oc3ccc(-c4ccc5c(c4)OCO5)cc3c2/C=C/c2ccc(N)cc2)c1 | 5.18
Cc1csc(NC(=O)c2cccnc2Cl)n1 | 8.38
CC(C)(C)c1cc(NC(=O)CCl)n(-c2ccccc2)n1 | -2.78
O=C(c1ccccc1)c1ccccc1C(=O)N1CCN(C(=O)c2ccccc2)CC1 | -10.2
COC(=O)C(Cc1ccccc1)NC(=O)c1cc(S(=O)(=O)N(C)C)ccc1Cl (stereo not shown) | 19
N#Cc1ccc(Oc2cnccn2)cc1 | 17.1
CC1Cc2ccccc2N1S(=O)(=O)c1cccc(C(=O)NCc2ccncc2)c1 (stereo not shown) | -34.9
Cc1cccc(NC(=O)C(CCC(N)=O)NC(=O)OCc2ccccc2)c1 (stereo not shown) | 6.48
O=C(CCCn1c(SCc2cccc([N+](=O)[O-])c2)nc2ccccc2c1=O)NCC1CCCO1 (stereo not shown) | -59.7
Cc1csc(NC(=O)CSc2nnc3c4ccccc4nc(C(C)(C)C)n23)n1 | 2.81
C/C(=N\OC(=O)c1cccc(C)c1)c1sc(-c2ccccc2)nc1C | -0.903

SMILES | hERG current change (%, negative = inhibition) at 10uM [%]
COc1cc(NS(=O)(=O)c2ccc(NC(=O)c3ccc(C)o3)cc2)nc(OC)n1 | -9.23
O=C(Nc1ccc(F)cc1)Nc1ccccc1NS(=O)(=O)c1cccs1 | 7.36
Cc1ccn2cc(CCNC(=O)CC(C)(C)C)nc2c1 | -2.43
Cc1cccc(C)c1OP(N)(=O)Oc1c(C)cccc1C | 11
CCn1c(-c2ccccn2)nc2cc(S(=O)(=O)N(C)C)ccc21 | 8.62
O=C(Nc1ccccn1)c1ccc(COc2ccccc2Cl)o1 | -19.9
O=C(COC(=O)c1cccnc1Cl)c1ccc(Cl)cc1Cl | 6.95
Cc1nn(CC(=O)NC(=O)NC2CCCCC2C)c(=O)c(C#N)c1C (stereo not shown) | -2.19
CCOC(=O)C1(Cc2ccccc2Cl)CCN(Cc2csc(C(C)=O)c2)CC1 | -12.3
CCOC(=O)c1sc(C)c(C(N)=O)c1NC1=NCCCCC1 | -14.6
COc1ccc(CN2C(=O)c3ccccc3C2=O)cc1C(=O)OC(C)C(=O)NC(N)=O (stereo not shown) | 26.5
CCC(C)[C@H](NC(=O)[C@@H]1CSC2c3ccccc3C(=O)N21)C(=O)NC1CCCC1 (stereo partly shown) | 1.57
COc1ccccc1CNC(=O)CSc1ncc(C(=O)Nc2ccccc2)c(=O)n1C | -12.8
COc1ccc(/C=C/CN2CCC(CO)(Cc3ccccc3Cl)CC2)cc1 | -79.6
CCCOc1ccc(C2NC(=O)CCC2[N+](=O)[O-])cc1 (stereo not shown) | 11.5
Cc1ccc(S(=O)(=O)Nc2cccc(C(=O)NCC(c3ccco3)N3CCCCC3)c2)cc1F (stereo not shown) | -48.4
C=C(C)C1CC=C(CN2CCC(O)CC2)CC1 (stereo not shown) | -6.28
COCCCNC(=O)CCc1nc2cccnc2n1Cc1ccccc1 | -29.8
CCC(CC)C(=O)Nc1cccc(C(=O)Nc2ccc(S(=O)(=O)Nc3ccc(C)cc3)cc2)c1 | -4.7
CCCNS(=O)(=O)c1ccc(OCC(=O)NCc2ccc3c(c2)OCO3)cc1 | -23.8
O=C(CN1C(=O)NC2(CCCCCC2)C1=O)c1ccccc1 | 1.83
CCOc1ccccc1NC(=O)CN1CCC(NC(=O)Nc2ccccc2)CC1 | -38.8

SMILES | hERG current change (%, negative = inhibition) at 10uM [%]
COc1cc(O)cc2cc3c(c(O)c12)C(=O)CC(C)(O)O3 (stereo not shown) | 2.71
CC(C)(C)C(=O)CN1C(=O)C2(OCCO2)c2ccccc21 | 5.03
CCOC(=O)C1=C(CC)OC(N)=C(C#N)C1c1cc(OC)ccc1OC (stereo not shown) | 6.37
COc1cccc(CC(=O)Nc2ccc(S(=O)(=O)Nc3nc(C)cc(C)n3)cc2)c1 | 10.2
COc1ccc(-c2cc(C(=O)Nc3ccc(F)cc3F)no2)cc1 | 8.61
CC1=C(C(=O)OC(C)C)C(c2cccnc2)n2ncnc2N1 (stereo not shown) | 10.6
O=C(COc1ncnc2ccccc12)NCCC1=CCCCC1 | -3.61
CC1(C)Cc2c(c(N3CCOCC3)nc3sc(C(=O)N4CCCCC4)c(N)c23)CO1 | 7.18
CCOC(=O)N1CCC(NC(=O)c2ccc(CO)c(C(=O)NC3CCN(C(=O)OCC)CC3)c2)CC1 | 22
Cc1ccc(-c2csc(NC(=O)c3ccco3)n2)cc1C | -15.6
O=C(NO)c1ccccc1C(F)(F)F | 15.4
CC1CN(C(=O)c2ccc(-c3cccc(C(F)(F)F)c3)o2)CC(C)O1 (stereo not shown) | -43.7
C=CCn1c(C(C)NC(=O)c2ccccc2)n[nH]c1=S (stereo not shown) | -8.54
COc1ccc(/C=C2\SC(=S)N(CCC(=O)Nc3ccc(O)cc3)C2=O)cc1 | 10.1
O=C(NNC(=O)c1sccc1-n1cccc1)Nc1ccccc1 | 39.7
Cc1nc2ccc(N=NC3=C(O)CC(C)(C)CC3=O)cc2s1 | -15.8
CCOc1cc(C(=O)N2CCCN(C)CC2)cc(OCC)c1OCC | 14.8
COC(=O)Cc1ccc(NC(=S)NCCSc2ccc(C)cc2)cc1 | -2.66
O=C(Nc1nccs1)c1ccc(S(=O)(=O)N2CCOCC2)cc1 | -3.44
CCN(CC)S(=O)(=O)c1cccc(-c2n[nH]c(=S)n2C)c1 | -51.8
Cc1ccc(S(=O)(=O)NCCC(=O)Nc2ccc(S(=O)(=O)NC(C)C)cc2)cc1 | 8.45
CCn1c(CC(=O)Nc2ccccc2C)nnc1SCC(=O)NC1=NCCS1 | 26

SMILES | hERG current change (%, negative = inhibition) at 10uM [%]
O/N=C\c1ccccc1Oc1ccc(F)cc1 | 12.8
Cc1cc(C(=O)N2CCN(c3ccc([N+](=O)[O-])cc3)CC2)co1 | -75.5
Cc1ccc(C)c(N2N=C(C(=O)Nc3ccccc3N3CCOCC3)CCC2=O)c1 | -39.7
O=C1CCN(Cc2ccc(Cl)cc2)N1 | 10.8
CCc1ccc(S(=O)(=O)/N=C2\C=C(Nc3cccc(C(=O)O)c3)C(=O)c3ccccc32)cc1 | 24.1
CCCCOC(=O)c1ccc(NC(=S)NC(=O)c2c(Br)c(C)nn2C)cc1 | 22.3
CCN(CC)S(=O)(=O)c1ccc(N2CCc3cc(OC)c(OC)cc3C2)nc1 | -24.1
O=C1SCCC1NS(=O)(=O)c1ccc([N+](=O)[O-])cc1 (stereo not shown) | -40.2
O=C(Nc1ccccc1Sc1ccccc1)c1ccccc1F | -0.719
Cc1cc(=O)[nH]c(SCC(=O)N2CCCc3ccccc32)n1 | -12
O=C(CSCc1ccc(Cl)cc1)c1ccco1 | -13.6
CCCOc1ccc(-c2csc3nc[nH]c(=O)c23)cc1 | -2.62
O=C(NCc1ccc(F)cc1)c1c2c(nc3ccccc13)CCN(Cc1ccccc1)C2 | -22.2
CN1CCN(/N=C/c2nc(-c3ccccc3)n3ccccc23)CC1 | -19.9
O=C(Nc1cccc(-c2nc3ccccc3[nH]2)c1)c1ccc(C(=O)Nc2cccc(-c3nc4ccccc4[nH]3)c2)cc1 | 12.5
CC1(C)OC(=O)C(=CNCC(=O)NCC(=O)O)C(=O)O1 | 9.9
Nc1ccccc1C(=O)N/N=C1/C2CN3CCN(C2)CC1(Cc1ccccc1)C3 | -37.8
Cc1nn(C)cc1CNC(=O)Nc1ccc(Cl)cc1 | -16.6
COc1cccc(C2=Nc3cccc4cccc(c34)N2)c1 | -13.3
O=C(c1ccccc1)c1ccc(OCC(O)CN2CCCCC2)cc1 (stereo not shown) | -39.9
CCN(CC(=O)NC1CCS(=O)(=O)C1)S(=O)(=O)c1ccccc1 (stereo not shown) | 7.7
COc1ccc(-n2cnnc2SCC(=O)N(C)C2CCS(=O)(=O)C2)cc1 (stereo not shown) | -9.09
